# Laboratory results taken from article PMC10668032.
# The other results are listed elsewhere or left out. At the low end of the ranking the order means little.
# Target: SIX1-Q177R homeodomain (UniProt Q15475)
# Experiment: universal protein binding microarray
# Conditions: Universal all-10-mer PBM (8x60K, AMADID 030236), 300 nM GST-tagged protein, Alexa Fluor 488 anti-GST; buffer, salt, pH and temperature not stated; high values mean tight binding; most listed sequences are background and not binding sites; double strand, one strand shown
row,Sequence,binding signal [E-score]
1,CATATACG,-0.0839
2,AAGACAGA,-0.0625
3,AGATCCTG,-0.071
4,TGGGAAAA,-0.266
5,CCCGACAG,-0.0511
6,CGTCAAGA,-0.192
7,ACGCTAAA,-0.159
8,CTATCTTA,-0.226
9,CGAGGACC,-0.0476
10,GAGGAACA,0.0209
11,CATTCTCA,-0.114
12,CGCACACG,0.24
13,CTCAACGA,-0.0294
14,CAATACCC,0.218
15,GAACTAAA,-0.0185
16,CGAGACCG,0.0608
17,AACGCGCG,-0.117
18,CTCATCAG,0.0668
19,TCCTAGCA,0.123
20,CAGAAACG,-0.165
21,ATAGACGG,-0.0634
22,GAAGCTTA,-0.126
23,CGGGTAAA,0.194
24,AAACTGCC,-0.132
25,CCCTAAAA,-0.0645

row,Sequence,binding signal [E-score]
1,CGCAAGCA,-0.0492
2,CAATCGTG,0.076
3,ACCGACGC,0.133
4,GATAGCCC,-0.207
5,AAGGGTTC,0.103
6,TATTAACA,0.0995
7,CTAACTCA,-0.23
8,GTCAGCCA,-0.0468
9,AAATTTGT,-0.287
10,GGCCCCTA,-0.208
11,CAACATCC,-0.206
12,AAGGGAAG,-0.203
13,ACAACGCG,-0.217
14,ACACCCAA,0.454
15,CCACCGTA,-0.0617
16,GTGGTAAA,0.00294
17,AAAAAGGG,-0.0621
18,AAAGCAGA,-0.229
19,AACCAAAG,-0.0434
20,CAGCGAGC,-0.0716
21,ATATGGGA,0.00717
22,CGCATATC,-0.071
23,CCAAATTC,-0.103
24,TACCATCA,0.113
25,AGGCTTGA,-0.179

row,Sequence,binding signal [E-score]
1,AGATATCC,0.0614
2,GCGCAAAA,0.097
3,CGCGAGTC,0.107
4,CCACACAA,-0.0479
5,ATACTGCG,-0.00343
6,AACCAAGA,0.118
7,CGGACCAG,0.0306
8,CTTCGTAC,-0.0798
9,ACACATCA,0.0704
10,CATAGGGG,0.042
11,GGTGCGCA,0.157
12,CCCGACTC,0.147
13,CGGACTAA,-0.0476
14,ATCAGAGC,-0.056
15,CGTGCTGC,-0.0896
16,AGTGAGTA,-0.103
17,GAAACGCA,-0.116
18,CCGAGTCA,0.157
19,AACCTGTG,0.0858
20,ACATCAAG,-0.184
21,ACCGCAAA,-0.00495
22,CTAGACCA,-0.218
23,CAAGATAA,-0.052
24,ATCCTACG,-0.0423
25,CATGCGCA,-0.0558

row,Sequence,binding signal [E-score]
1,CCTGCTAG,-0.126
2,AGCTGCCG,-0.213
3,ACCCTCAT,0.105
4,GCGCTTAC,0.00213
5,AAGGTCAG,-0.0752
6,ACAGCGGT,0.0128
7,ATTCATGG,-0.0775
8,AAAGGTGC,0.071
9,CTTTTCAA,-0.0466
10,TAGACACA,0.134
11,GCAACAAA,-0.0111
12,CTTCAAAG,-0.208
13,AATTCGTC,-0.186
14,GGGTGACA,0.302
15,GGATCGTA,0.0494
16,AAAACCGC,-0.103
17,AGCCCAAA,0.0244
18,GTGATCCA,0.105
19,CCAGTTCC,-0.176
20,GTAAGCCA,-0.0405
21,AAATGACA,0.0912
22,TATAATCA,-0.0637
23,CGCTAAAC,0.0376
24,GACGATCA,-0.182
25,ACGTTCTC,-0.12

row,Sequence,binding signal [E-score]
1,AGGGGTCA,0.28
2,CGTGCAAG,0.0524
3,TCGCCCAA,-0.0964
4,TTATTCAA,-0.0785
5,AGCATACC,-0.085
6,AATGTATA,-0.0907
7,GAAGGTCA,-0.212
8,ATTGTTGG,-0.133
9,CCAACTAG,0.223
10,CAATAAGG,-0.233
11,ACGTAAGT,-0.206
12,CGTCGGAA,-0.116
13,GCCTGCCC,-0.104
14,CGTACGTA,-0.161
15,CGGTGGAC,0.0967
16,CAGCAATC,-0.137
17,CTCCGTTC,0.182
18,CGACAGAC,0.0483
19,ACACCCGC,0.462
20,GCCTCAGC,-0.209
21,CCTGAAGA,-0.0439
22,GCATGTCA,-0.215
23,ATACGGTG,0.276
24,AGGATTAG,-0.0343
25,CAATAAAG,-0.265

row,Sequence,binding signal [E-score]
1,CAACGTTG,-0.214
2,AAGGGCCC,-0.117
3,CAATCGCG,0.0223
4,ACAGATTC,-0.0939
5,TGGCACCA,0.137
6,CCCCGGCC,0.233
7,AACGAATG,-0.24
8,CAACTGGG,0.136
9,CCTATCCG,-0.126
10,ATACAAGC,-0.0959
11,ATATAAAA,-0.0786
12,CCAACGTA,0.0754
13,CAGTCACA,0.171
14,AGTAAGGG,0.0946
15,CTCACAGA,-0.00915
16,CTTAAGCC,-0.214
17,AAGGTCTG,-0.147
18,GCAGATGA,-0.101
19,ACTGGAGA,-0.14
20,ACCTTTGG,-0.0212
21,CCATGCGA,-0.0467
22,GTAAATGA,0.0678
23,CGCACCAC,0.206
24,AATGCGCG,0.135
25,GCGCCATA,-0.0831

row,Sequence,binding signal [E-score]
1,ACAGAGAG,-0.21
2,CCAACGAG,-0.0589
3,CCGGCCGA,-0.0415
4,CCTTACGA,0.0139
5,CTTGTCCA,-0.0179
6,ACATTATA,-0.032
7,CTATCCAG,-0.224
8,CGGGTGTC,0.487
9,ATACGCCG,0.0816
10,GAGGCTGC,-0.132
11,ACTCTCCG,0.0305
12,AGTTGCGC,-0.256
13,CTCGTCTC,-0.104
14,ACGTCTCA,0.0643
15,TAAAGTAA,-0.165
16,CCCAAGAA,0.101
17,GAGCACGA,0.105
18,TTCGTCAA,-0.0504
19,CTAGTTGA,-0.0506
20,CAATGCCA,-0.216
21,GGAGCGAC,-0.0865
22,AAAGTTAA,-0.268
23,CGATTCAC,0.0658
24,CTCACACC,0.393
25,ACAGTTCC,-0.212

row,Sequence,binding signal [E-score]
1,ATATTGCC,-0.2
2,TCCCGTAA,-0.142
3,CAGTAGAG,-0.0025
4,AGAATTTA,-0.18
5,GCTTGACA,0.127
6,ACCACCGG,0.0921
7,ATTCTGTG,0.0189
8,CTTAATTA,-0.0265
9,CTAATGGA,-0.0333
10,ACGTCACT,-0.0221
11,GGTGAGGA,-0.0479
12,GACGTGCA,-0.0419
13,CCTTAAAA,-0.118
14,AAATATAG,-0.0852
15,GGGATAAC,0.118
16,AGTAGTAC,-0.0327
17,ATAAATTG,0.124
18,CGGATGCA,-0.0318
19,GGCGATGA,-0.0206
20,AGACACGA,0.369
21,CGTACCTA,0.118
22,CCGTACCA,0.0535
23,CATTGCGG,0.133
24,ATGGTTCA,-0.0461
25,ATACGTGA,0.0455

row,Sequence,binding signal [E-score]
1,AGTATGCC,-0.0511
2,CGTCGTTC,-0.136
3,ACAAACAG,-0.0933
4,CCTAAAGA,0.046
5,AATACGAG,0.0529
6,TCAGGGGA,0.165
7,GCCTACAA,-0.0277
8,GCGATAAC,0.0213
9,ACGTCTAG,-0.0895
10,CCTGCGCC,-0.112
11,GGAATTCC,-0.153
12,GTAGCTTA,0.0179
13,GGGCCTGA,-0.0408
14,CTTCGTCA,-0.0898
15,CGCTATGA,0.00818
16,GCCATTAA,-0.0682
17,CCTTGCAA,-0.221
18,GCGTCGTA,-0.0703
19,ACTCGCGG,0.053
20,AGGAGCGA,-0.165
21,GCATGGCA,-0.246
22,TCGGGGCA,0.0738
23,CGAATGCC,-0.164
24,ACATACGC,-0.019
25,TAATCCAA,-0.00703

row,Sequence,binding signal [E-score]
1,GCACCACC,0.261
2,ACGTTTTA,-0.137
3,CCCCACGC,0.124
4,ACACGGTA,0.385
5,TTAACTAA,-0.0764
6,GTTACAAA,0.0926
7,GTTGTTAA,-0.14
8,GAACCAGC,-0.0582
9,AAGGATGC,-0.221
10,GTATATCA,0.0538
11,AATGTGAG,-0.0691
12,TCAGACCA,-0.0454
13,CTATGTCA,-0.132
14,TAGGGGGA,0.00812
15,CCTCCGTA,-0.0859
16,AAAAAGAC,-0.21
17,AGGAGCTA,-0.222
18,AGACATTA,-0.0844
19,ACTTATTA,0.0898
20,CGATCACG,0.173
21,ATACCCTG,0.31
22,CTCTAGCA,-0.085
23,ATAGAGAC,-0.308
24,GACAGCTC,-0.258
25,AACCAGAA,0.0225

row,Sequence,binding signal [E-score]
1,TATGTCCA,-0.103
2,GTGCCCTA,0.000565
3,CCATACCG,-0.0866
4,ACGGCCGA,-0.12
5,CCATGAAA,-0.117
6,AGGTAACA,0.138
7,ATGGACGC,-0.138
8,GATTTAAA,-0.241
9,CAAATGTG,0.0608
10,ATCACCAA,-0.0707
11,CGGACACC,0.48
12,GTACCCTA,0.124
13,GACTCTAA,-0.0982
14,AGCCACCT,-0.238
15,CCACCCCC,0.209
16,GGGGACAA,-0.0265
17,GGTTCAAA,0.00768
18,CATTCAGG,-0.231
19,TAAAATCA,-0.186
20,CCCCGCGC,0.111
21,AAATACCA,-0.224
22,GCATCTAA,-0.148
23,CAAAGAGG,0.0396
24,AAAGCAGC,-0.242
25,ATCGTATC,-0.0294

row,Sequence,binding signal [E-score]
1,CAGTAGTA,-0.132
2,CCTCATCA,0.115
3,AGCACCTG,0.0803
4,GTTATCCA,0.0621
5,AAGTAGAG,0.0576
6,ACGAGAAC,-0.1
7,ATTTGCTG,-0.278
8,ACACGGTG,0.438
9,ATGCCTAA,-0.0881
10,CTGTAGTA,0.0773
11,CCCAATTC,0.0233
12,TCAGGCGA,-0.0421
13,ACCTTCTA,-0.0416
14,ACCGCTGA,0.0282
15,ACCCTGTG,0.207
16,TATTTGAA,-0.155
17,TATCGTGA,-0.118
18,ATGATAGA,-0.186
19,AACACCTT,0.452
20,CACCTGAA,0.235
21,CGAGAATA,-0.0601
22,CGAACTAG,-0.133
23,CGCACGAG,0.139
24,ACCTCCCG,0.133
25,CTTCCCAC,-0.0901

row,Sequence,binding signal [E-score]
1,GCTCGGAA,-0.0699
2,GCTCGACA,-0.00535
3,ATTATACG,-0.106
4,AAAACCGG,-0.0839
5,CTTCAGTC,-0.231
6,AGGCAACC,-0.214
7,GAGGGACC,-0.0368
8,CTTCCTTA,-0.0897
9,CGCGTGTA,0.43
10,AACGGATA,0.0941
11,GGAGGTAC,-0.0532
12,CGCCGTTA,-0.101
13,CAAATAAG,-0.0839
14,ACCATCAT,-0.0537
15,GCCGGTTA,0.0222
16,ACCGAGGA,0.152
17,GATTAGAA,0.00901
18,CACGCAAG,0.123
19,ATCAGTTG,0.0653
20,CACTCCTA,0.206
21,CTTCATGA,0.0206
22,ACACATAC,0.18
23,ACATTGTC,-0.0597
24,CGCACGAA,0.102
25,ACGCGAGG,0.123

row,Sequence,binding signal [E-score]
1,CTCTTGAA,-0.0221
2,ACACAGTG,0.259
3,AACCGCTG,-0.127
4,GTAGGCCA,-0.00103
5,CAGGGTTC,-0.0387
6,ATCTATAA,-0.186
7,AAATTCGG,0.0463
8,AACGCCCG,0.12
9,CGCTGTAA,-0.121
10,GTCGCGAC,0.0839
11,CGCACGCA,0.0753
12,TGATAGAA,-0.0326
13,AGGACAGA,-0.246
14,GTCTACAC,0.42
15,CTGGCATC,-0.0197
16,ACGGAACA,0.212
17,GGCGATTA,-0.138
18,ACGTGTAC,0.387
19,ATAGATCG,-0.245
